# Results taken from patent US20250163048A1 (Tango Therapeutics, Inc., priority 2022, published 2025).
# Like-named read-outs stand apart in the source and are kept apart here.
# Columns and labels:
# [1] = system: HAP1 MTAP-intact cell line; assay: SDMA in-cell western assay, HAP1 MTAP-intact; details: Homo sapiens
# [2] = system: HAP1 MTAP-deleted cell line; assay: SDMA in-cell western assay, HAP1 MTAP-deleted; details: for IC50 / IC90: Homo sapiens; for Hap1 MTAP intact/deleted ratio: IC50 ratio between HAP1 MTAP-intact and HAP1 MTAP-deleted cell line
# [3] = system: MTAP-deleted cell line; assay: viability assay for the MTAP-deleted cell line; format: cell-based; details: Homo sapiens, HAP1, viability assay
# [4] = HAP1, read-out: Hap1 MTAP intact IC50, SDMA in-cell western, HAP1 MTAP-intact cell line
# [5] = HAP1, read-out: Hap1 MTAP deleted IC50, SDMA in-cell western, HAP1 MTAP-deleted cell line
# [6] = HAP1, read-out: Hap1 MTAP deleted IC90, SDMA in-cell western, HAP1 MTAP-deleted cell line
# [7] = HAP1, read-out: Hap1 MTAP intact IC50, SDMA in-cell western assay, HAP1 MTAP-intact cell line
# [8] = HAP1, read-out: Hap1 MTAP deleted IC50, SDMA in-cell western assay, HAP1 MTAP-deleted cell line
# [9] = HAP1, read-out: Hap1 MTAP deleted IC90, SDMA in-cell western assay, HAP1 MTAP-deleted cell line
SMILES,"IC50 [1, 4]","IC50 [2, 5]","IC90 [2, 6]",Hap1 MTAP intact/deleted ratio ([2]; SDMA in-cell western),IC50 [3],"IC50 [1, 7]","IC50 [2, 8]","IC90 [2, 9]",Hap1 MTAP intact/deleted ratio ([2]; SDMA in-cell western assay)
"C[C@H]1CC[C@H](c2cccc(Cl)c2)N(C(=O)C(=O)Nc2cnc(N)c3cn[nH]c23)C1 [Compound 80, N-(4-amino-1H-pyrazolo[4,3-c]pyridin-7-yl)-2-((2R,5S)-2-(3-chlorophenyl)-5-methylpiperidin-1-yl)-2-oxoacetamide]",0.005 to 0.05 µM,< 0.005 µM,< 0.075 µM,B (“B” indicates an IC50 ratio greater than or equal to 15 fold but lower than 30 fold),< 0.1 µM,,,,
"C[C@H]1CC[C@H](c2ccc3c(c2)CCN(C)C3(C)C)N(C(=O)C(=O)Nc2cnc(N)c3cn[nH]c23)C1 (racemic) [Compound 221, N-(4-Amino-2H-pyrazolo[4,3-c]pyridin-7-yl)-2-oxo-2-[rac-(2R,5S)-5-methyl-2-(1,1,2-trimethyl-3,4-dihydroisoquinolin-6-yl)-1-piperidyl]acetamide]",,,,,< 0.1 µM,> 0.05 µM,0.005 to 0.05 µM,< 0.075 µM,B (“B” indicates an IC50 ratio greater than or equal to 15 fold but lower than 30 fold)
"C[C@H]1CCN(C(=O)C(=O)Nc2cnc(N)c3cn[nH]c23)[C@@H](c2ccccc2)C1 (racemic) [Compound 209, N-(4-Amino-1H-pyrazolo[4,3-c]pyridin-7-yl)-2-oxo-2-[rac-(2R,4S)-4-methyl-2-phenyl-1-piperidyl]acetamide]",,,,,< 0.1 µM,> 0.05 µM,< 0.005 µM,< 0.075 µM,A (“A” indicates an IC50 ratio greater than or equal to 30 fold)
"C[C@H]1CC[C@H](c2ccsc2)N(C(=O)C(=O)Nc2cnc(N)c3cn[nH]c23)C1 (racemic) [Compound 205, N-(4-Amino-1H-pyrazolo[4,3-c]pyridin-7-yl)-2-oxo-2-[rac-(2R,5S)-5-methyl-2-(3-thienyl)-1-piperidyl]acetamide]",,,,,< 0.1 µM,0.005 to 0.05 µM,< 0.005 µM,< 0.075 µM,A (“A” indicates an IC50 ratio greater than or equal to 30 fold)
"C[C@H]1CC[C@H](c2ccc3sc(CCN4CCCC4)nc3c2)N(C(=O)C(=O)Nc2cncc3cn[nH]c23)C1 [Compound 63, 2-((2R,5S)-5-methyl-2-(2-(2-(pyrrolidin-1-yl)ethyl)benzo[d]thiazol-5-yl)piperidin-1-yl)-2-oxo-N-(1H-pyrazolo[4,3-c]pyridin-7-yl)acetamide]",> 0.05 µM,< 0.005 µM,< 0.075 µM,A (“A” indicates an IC50 ratio greater than or equal to 30 fold),< 0.1 µM,,,,
"CCn1cc2cc([C@H]3CC[C@H](C)CN3C(=O)C(=O)Nc3cnc(N)c4cn[nH]c34)ccc2n1 (racemic) [Compound 262, N-(4-Amino-1H-pyrazolo[4,3-c]pyridin-7-yl)-2-oxo-2-[rac-(2R,5S)-2-(2-ethylindazol-5-yl)-5-methyl-1-piperidyl]acetamide]",,,,,< 0.1 µM,0.005 to 0.05 µM,< 0.005 µM,< 0.075 µM,C (“C” indicates an IC50 ratio of less than 15 fold)
"CO[C@@H]1CN(C)CC[C@H]1c1nc2cc([C@H]3CC[C@H](C)CN3C(=O)C(=O)Nc3cncc4cn[nH]c34)ccc2s1 (mixture of isomers) [Compound 128, 2-((2R,5S)-2-(2-(rac-(3S,4R)-3-methoxy-1-methylpiperidin-4-yl)benzo[d]thiazol-5-yl)-5-methylpiperidin-1-yl)-2-oxo-N-(1H-pyrazolo[4,3-c]pyridin-7-yl)acetamide]",> 0.05 µM,< 0.005 µM,,A (“A” indicates an IC50 ratio greater than or equal to 30 fold),< 0.1 µM,,,,
"C[C@H]1CC[C@H](c2ccc3sc(C4CCN(C)CC4(C)C)nc3c2)N(C(=O)C(=O)Nc2cncc3cn[nH]c23)C1 (stereo partly drawn) [Compound 81, 2-((5S)-5-methyl-2-(2-(1,3,3-trimethylpiperidin-4-yl)benzo[d]thiazol-5-yl)piperidin-1-yl)-2-oxo-N-(1H-pyrazolo[4,3-c]pyridin-7-yl)acetamide]",0.005 to 0.05 µM,< 0.005 µM,< 0.075 µM,B (“B” indicates an IC50 ratio greater than or equal to 15 fold but lower than 30 fold),< 0.1 µM,,,,
"C[C@H]1CC[C@H](c2ccc3sc(C4CC(C)(C)N(C)C(C)(C)C4)nc3c2)N(C(=O)C(=O)Nc2cncc3cn[nH]c23)C1 [Compound 85, 2-((2R,5S)-5-methyl-2-(2-(1,2,2,6,6-pentamethylpiperidin-4-yl)benzo[d]thiazol-5-yl)piperidin-1-yl)-2-oxo-N-(1H-pyrazolo[4,3-c]pyridin-7-yl)acetamide]",0.005 to 0.05 µM,,< 0.075 µM,,< 0.1 µM,,,,
"C[C@@H]1CC[C@@H](c2cnco2)N(C(=O)C(=O)Nc2cnc(N)c3cn[nH]c23)C1 (racemic) [Compound 239, N-(4-Amino-1H-pyrazolo[4,3-c]pyridin-7-yl)-2-oxo-2-[rac-(2S,5R)-5-methyl-2-oxazol-5-yl-1-piperidyl]acetamide]",,,,,< 0.1 µM,> 0.05 µM,0.005 to 0.05 µM,< 0.075 µM,C (“C” indicates an IC50 ratio of less than 15 fold)
"C[C@H]1CC[C@H](c2ccc3sc(CCN(C)C)nc3c2)N(C(=O)C(=O)Nc2cncc3cn[nH]c23)C1 [Compound 5, 2-((2R,5S)-2-(2-(2-(dimethylamino)ethyl)benzo[d]thiazol-5-yl)-5-methylpiperidin-1-yl)-2-oxo-N-(1H-pyrazolo[4,3-c]pyridin-7-yl)acetamide]",0.005 to 0.05 µM,< 0.005 µM,< 0.075 µM,B (“B” indicates an IC50 ratio greater than or equal to 15 fold but lower than 30 fold),< 0.1 µM,,,,
CN(C)c1cccc([C@H]2CCCCN2C(=O)C(=O)Nc2cnc(N)c3cn[nH]c23)c1 [Compound 129],> 0.05 µM,< 0.005 µM,< 0.075 µM,B (“B” indicates an IC50 ratio greater than or equal to 15 fold but lower than 30 fold),< 0.1 µM,,,,
"C[C@H]1CC[C@H](c2ccc3sc(C45CCN(CC4)C5)nc3c2)N(C(=O)C(=O)Nc2cncc3cn[nH]c23)C1 [Compound 57, 2-((2R,5S)-2-(2-(1-azabicyclo[2.2.1]heptan-4-yl)benzo[d]thiazol-5-yl)-5-methylpiperidin-1-yl)-2-oxo-N-(1H-pyrazolo[4,3-c]pyridin-7-yl)acetamide]",0.005 to 0.05 µM,< 0.005 µM,< 0.075 µM,C (“C” indicates an IC50 ratio of less than 15 fold),< 0.1 µM,,,,
"C[C@@H]1CC[C@@H](C2CCCC2)N(C(=O)C(=O)Nc2cnc(N)c3cn[nH]c23)C1 (racemic) [Compound 147, N-(4-amino-1H-pyrazolo[4,3-c]pyridin-7-yl)-2-(rac-(2S,5R)-2-cyclopentyl-5-methylpiperidin-1-yl)-2-oxoacetamide]",> 0.05 µM,< 0.005 µM,< 0.075 µM,A (“A” indicates an IC50 ratio greater than or equal to 30 fold),< 0.1 µM,,,,
